Reference: PubChem BioAssay AID624417 (National Center for Advancing Translational Sciences (NCATS), 2012)
The campaign covered roughly 410,000 compounds. About 6,400 (1.6%) were called active. The shares of active, inactive and inconclusive entries below differ from those in the screen. Calls follow the shape of the dose curve; as a rule, active = well fitted inhibition curve with a large enough effect; inconclusive = small, poorly fitted or top-dose-only effect; inactive = no such curve, though single readings can be large or run the other way. No potency is given beside an inconclusive call; the fits are too rough.

target: Glucagon-like peptide 1 receptor (Homo sapiens) (UniProt P43220); assay: qHTS of GLP-1 Receptor Inverse Agonists (Inhibition Mode); conditions: HEK293 GLP-1R CRE-luciferase, luminescence, 24 h, GLP-1R form is constitutively active; activity change, negative = inhibition: at 38.3 µM (top of the series) unless noted; also: nearly all actives have a fitted effect of over 55% in size
Sequence of UniProt P43220 (P43220 whole entry, looked up): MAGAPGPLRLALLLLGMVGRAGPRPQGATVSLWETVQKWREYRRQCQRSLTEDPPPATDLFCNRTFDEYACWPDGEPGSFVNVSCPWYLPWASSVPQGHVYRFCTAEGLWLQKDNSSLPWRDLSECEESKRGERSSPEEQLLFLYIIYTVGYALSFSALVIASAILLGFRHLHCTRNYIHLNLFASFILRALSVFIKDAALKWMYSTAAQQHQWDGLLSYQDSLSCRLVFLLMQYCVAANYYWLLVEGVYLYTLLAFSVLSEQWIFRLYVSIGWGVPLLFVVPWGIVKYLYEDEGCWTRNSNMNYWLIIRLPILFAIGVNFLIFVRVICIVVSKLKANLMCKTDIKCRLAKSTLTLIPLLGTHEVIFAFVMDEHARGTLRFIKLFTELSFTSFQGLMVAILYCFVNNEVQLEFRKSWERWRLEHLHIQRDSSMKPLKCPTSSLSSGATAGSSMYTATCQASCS
Method in brief: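 Assay principle: reduced luminescence from a cAMP-responsive reporter in HEK293 cells co-expressing a constitutively active GLP-1R. Conditions: 24 hr compound incubation, 37 deg C, 5% CO2.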
% is scaled to controls: 0 for no effect and ±100 for the full control effect; potency is read from the fitted curve at half-maximal effect; tags tell the direction and shape of the fitted curve.

Compound | Potency | activity change, negative = inhibition
CCC(CC)C(=O)N(C)c1c(C)nc2c(OCc3cccc(Cl)c3)cccn12 | inconclusive [inhibitor, single point] | –
CN1OC[C@@H]2CN(Cc3ccccc3)[C@H](c3cccc(-c4ccc(C#N)cc4)c3)C[C@@H]21 | inconclusive [inhibitor, single point] | –
Cc1c(Cl)cccc1NC(=S)NC1CCCC1 | inconclusive [inhibitor, single point] | –
Cc1cc(Nc2ccc(Br)cc2)nc(-c2ccccc2O)n1 | inconclusive [inhibitor, partial curve, poor fit] | –
COc1cc(OC)c(OC)cc1CN(C)CC1CCCN(CCc2ccccc2F)C1 (stereo not drawn) | inconclusive [inhibitor, partial curve, poor fit] | –
CCCNC(=O)NC(=O)CSc1ccc(C)cc1C | inconclusive [inhibitor, single point] | –
CCc1ccc(OCCCC(=O)NCc2ccccc2)cc1 | inconclusive [inhibitor, single point] | –
COc1ccccc1Cc1nc2ccccc2nc1SCC(=O)N1CCCCC1 | inconclusive [inhibitor, partial curve, poor fit] | –
CCCCOc1ccccc1NC(=O)CC1Sc2ccccc2NC1=O (stereo not drawn) | inactive | –
Cc1cc(C(=O)COC(=O)c2ccccc2O)c(C)n1CC1CCCO1 (stereo not drawn) | inconclusive [inhibitor, full curve, poor fit] | –
O=C(CSC1=NCCS1)Nc1nc2ccccc2s1 | inactive | –
O=C(Nc1ccsc1C(=O)O)c1cccc(Oc2ccccc2)c1 | – | inconclusive: -59.3% [inhibitor]
Cc1cccc(-n2c(C)c(-c3ccccc3)[nH]c2=S)c1 | inconclusive [inhibitor, partial curve, poor fit] | –
CC(C)(C)C(=O)NC1CCN(CC(=O)Nc2ccc3c(c2)OCO3)CC1 | inactive | –
CC(C)Oc1ccc(CNC(=O)C2CCN(C(=O)N3CC(C)Oc4ccccc43)CC2)cc1 (stereo not drawn) | inconclusive [inhibitor, single point] | –
CC(=O)c1cc(-c2ccccc2)n(CC(=O)NCCc2ccc(C)cc2)c1C | inactive | –
CCOC(=O)c1ccc(CN(Cc2ccccc2)S(=O)(=O)c2ccc(Cl)cc2)cc1 | inconclusive [inhibitor, single point] | –
N/C(=N\OC(=O)c1cc([N+](=O)[O-])ccc1Cl)c1ccccn1 | inactive | –
CC(C)NC(=O)C1(C)CCN1C(=O)Cc1ccc(-c2ccccc2)cc1 (stereo not drawn) | inactive | –
FC(F)(F)c1cc(-c2cccc(Br)c2)nc2ncnn12 | inactive | –
C=CCC[C@@H](CCCCC)OC(=O)/C=C/[C@H](O)[C@@H](O)C[C@@H](O)CC=C | inconclusive [inhibitor, partial curve] | –

Compound | Potency | activity change, negative = inhibition
CC(=O)Nc1cccc(Nc2nc(-c3ccccc3)nc3ccccc23)c1 | inconclusive [inhibitor, full curve] | –
COc1ccc(NC(=O)C2C(c3ccccc3)C2(Cl)Cl)c(OC)c1 (stereo not drawn) | inconclusive [inhibitor, partial curve, poor fit] | –
COC(=O)CCN(C1CCCCC1)S(=O)(=O)c1ccc(S(=O)(=O)NC2CCCCC2)cc1 | inconclusive [inhibitor, single point] | –
Cc1ccccc1C(=O)Nc1nc(-c2ccc(Br)cc2)ns1 | inconclusive [inhibitor, partial curve, poor fit] | –
CC(C)NC(=O)C1CCC(Cn2c(=O)c3sccc3n(CC(=O)Nc3ccccc3)c2=O)CC1 (stereo not drawn) | inactive | –
O=[N+]([O-])c1ccc(N2CCN(CC(O)COc3ccccc3)CC2)cc1 (stereo not drawn) | inactive | –
c1ccc(COn2c(-c3ccccc3)nc3c2CCc2nonc2-3)cc1 | inconclusive [inhibitor, full curve, poor fit] | –
CCOCc1c(C(=O)Nc2ccc3nc(N4CCOCC4)sc3c2)oc2ccccc12 | inconclusive [inhibitor, partial curve, poor fit] | –
COc1cccc(NC(=O)CN(C)C(=O)c2cc(S(=O)(=O)N3CCCCC3)ccc2Cl)c1 | inactive | –
Cc1nc(N2CCCC2)c2c(C(=O)Nc3ccc(Br)cc3F)c(C)oc2n1 | inconclusive [inhibitor, single point] | –
CS/C(=C\C(=O)c1ccco1)Nc1ccccc1Cl | inconclusive [inhibitor, partial curve, poor fit] | –
CCOc1ccc(C(=O)Nc2cccc(C(=O)O)c2C)cc1Cl | inconclusive [inhibitor, full curve, poor fit] | –
FC(F)Oc1ccccc1NC(=S)NCCc1ccccc1 | inconclusive [inhibitor, partial curve, poor fit] | –
CCOC(=O)C1CCC(CN(Cc2ccc(OC)cc2)S(=O)(=O)c2ccc(F)c(C(=O)Nc3cc(C)ccc3C)c2)CC1 (stereo not drawn) | inconclusive [inhibitor, partial curve, poor fit] | –
Nc1cc(OCc2ccccc2)ccc1OCc1ccccc1 | inconclusive [inhibitor, partial curve, poor fit] | –
CCOC(=O)c1cnc2ccc(OCC)cc2c1N1CCN(c2ccccc2F)CC1 | inconclusive [inhibitor, single point] | –
Cn1c(=O)n(C)c2cc([N+](=O)[O-])c(N3CCN(C(=O)c4ccc(Cl)cc4)CC3)cc21 | inconclusive [inhibitor, single point] | –
Cc1ccccc1Oc1cc(-n2ncc(Cl)c(Cl)c2=O)ncn1 | inconclusive [inhibitor, full curve, poor fit] | –
CNC(=S)N1CCN(C(c2ccccc2)c2ccccc2)CC1 | inconclusive [inhibitor, partial curve, poor fit] | –
CC(C)C(=O)Nc1cccc(COc2ccc(CN(Cc3ccccc3)C(=O)OC(C)(C)C)cc2)c1 | inconclusive [inhibitor, partial curve, poor fit] | –
CSc1ccccc1NC(=O)Cc1ccccc1 | inconclusive [inhibitor, partial curve, poor fit] | –

Compound | Potency | activity change, negative = inhibition
O=C(c1ccncc1)N1N=C(c2ccc(Br)cc2)CC1c1ccccc1O (stereo not drawn) | inconclusive [inhibitor, partial curve, poor fit] | –
Cc1noc(Cn2c(=O)c3cc4c(cc3n(CC(=O)Nc3ccccc3F)c2=O)OCO4)n1 | inactive | –
C[C@H](NC(=O)c1nc[nH]c1C(=O)N[C@@H](Cc1ccccc1)C(=O)OC(C)(C)C)C(=O)OC(C)(C)C | inconclusive [inhibitor, partial curve, poor fit] | –
COc1ccc(CCNS(=O)(=O)c2ccc3c(c2)CCCC3)cc1OC | inconclusive [inhibitor, single point] | –
CCN(CC)CCCNC(=O)CSc1nc(-c2ccc(OC)cc2)cc(C(F)(F)F)n1 | inconclusive [inhibitor, single point] | –
O=C(CSCc1cnn(-c2ccccc2)c1-n1cccc1)NCc1ccc(F)cc1 | inconclusive [inhibitor, single point] | –
COC(=O)c1cccc(NS(=O)(=O)c2ccc(OC)cc2)c1C | inconclusive [inhibitor, single point] | –
Cc1ccc(Cl)cc1NC(=O)COC(=O)CC1CC2CCC1C2 (stereo not drawn) | inconclusive [inhibitor, single point] | –
COc1ccc2c(-c3ccccc3)cc(SCC(N)=O)nc2c1 | inconclusive [inhibitor, single point] | –
CCc1ccc(NC(=O)CSc2ccc(-c3cccs3)nn2)cc1 | inactive | –
Oc1c(C(c2ccccc2Cl)N2CCN(Cc3ccccc3)CC2)sc2nc(-c3ccco3)nn12 (stereo not drawn) | inconclusive [inhibitor, single point] | –
CCOC(=O)c1ccc(NC(=S)NCCc2ccc(OC)c(OC)c2)cc1 | inconclusive [inhibitor, single point] | –
Cc1c(C(=O)NC2CC(C)(C)NC(C)(C)C2)oc2c(Cl)cccc12 | inconclusive [inhibitor, single point] | –
CCCC(C(=O)Nc1ccc(C)c(S(=O)(=O)N2CCOCC2)c1)c1ccccc1 (stereo not drawn) | inconclusive [inhibitor, single point] | –
COc1ccc(NC(=O)CSc2nc(-c3cccs3)cc(C(F)(F)F)n2)c(OC)c1 | inactive | –
O=c1[nH]c(CN(CCc2ccccc2)S(=O)(=O)c2ccc(Cl)cc2)nc2ccccc12 | inconclusive [inhibitor, partial curve] | –
COc1ccc(CNCCC(c2ccc(F)cc2)c2ccc(OC)cc2)cc1 (stereo not drawn) | inconclusive [inhibitor, single point] | –
CCCCc1ccc(NC(=O)CSc2nc(=O)n(CCN(C)C)c3c2CCC3)cc1 | inconclusive [inhibitor, full curve] | –
CCCCOc1ccc(Cc2c(Cl)nc(SC)nc2N2CCOCC2)cc1 | inconclusive [inhibitor, single point] | –
Cc1ccc(F)cc1C(=O)N1CCCC(c2cc(C(=O)Nc3ccccc3Cl)no2)C1 (stereo not drawn) | inconclusive [inhibitor, single point] | –
O=C1OC(COCC#Cc2ccccc2)CN1c1ccccc1 (stereo not drawn) | inconclusive [inhibitor, single point] | –
